The source gives no read counts; variants with many changes may rest on few reads.

The record followed here is the RNAGym collection of RNA variant scans (doi:10.7554/elife.90254).

First the molecules themselves.
B1: LINE1-mini (parent)
chain: GGCAGAGCUCAACACAGCGUGGCAAAGUGGCUGUGGCUAGACUGCC

In this data set the parent is B1. Put plainly: self-cleavage, relative activity (ratio to wild type); higher = more cleavage; in vitro, sequencing; the parent is a self-cleaving ribozyme.
On to G1C C3A G17C G19A G36A C37U, for which the self-cleavage is 0.18. With G1C U28G C45A C46U the figure was 0.01; with G1C A39G G44A, 0.01; with G1U C8A U32C, 0.04. With G1C U9C A11G C13G G27C A41U C45G the figure was 0. As for G1C G7U C46A, the self-cleavage came to 0.02. For the variant G1C G7U C8U A24U A25G, the self-cleavage came out at 0.1. As to G1C G2U G21A G29C, the self-cleavage was 0.07.

As to G1U C8U G35U G40C, the self-cleavage came out at 0.15. Turning to G1U A4U A11G G21A, the self-cleavage came out at 0.02. The figure for G1U A4G C23U is 0.14; for G1C A12G G17C C23A C45G it is 0.18; for G1U A6U A24C A25U U32C it is 0.07. As for G1C G2U G7U, the self-cleavage came to 0.14. As for G1C G22C G30U C45G, the self-cleavage came out at 0.01. With G1U C8U C23G the figure was 0.03; with G1U C3A A6C C8G U9C C42U, 0.08. The figure for G1C U32A G33A C45U is 0.03; for G1C C15U G35U G36U C46U it is 0.02; for G1U A4C G21A it is 0.29. As for G1U A11G U20C U43A, the self-cleavage came to 0.01.

Turning to G1U A4U U9A G22U G29U, the self-cleavage came out at 0.09. For G1C A11C C15U, the self-cleavage amounted to 0.01. As to G1U A41C C46G, the self-cleavage is 0.01. With G1C G36U C42U, the self-cleavage was 0.26. For G1C C18A U28A A39U G40C, the self-cleavage is 0.01. As to G1C U9C A26G G35U C45A, the self-cleavage is 0.01. As for G1C A26C U38C, the self-cleavage is 0.05. With G1C C8U C23A G35U, the self-cleavage was determined as 0.02. With G1C C3A C13G G35U G44U the figure was 0.32; with G1C U20C A26U G30U C46A, 0.23. For G1C G5C G17A C37G, the self-cleavage amounted to 0.01. With G1C U9C G17C U38G C46A, the self-cleavage is 0.03. For the variant G1C C23A U28G, the self-cleavage is 0.11.

G1U A12U A24C G40A: the self-cleavage was 0. G1C C18U G36C C37G U38A: the self-cleavage was 0. With G1C G29A G30C the figure was 0.45; with G1C G2U C15U C18G G36A C37A, 0; with G1U C3A A12C U32G A39C G40A, 0.02. Turning to G1U C3U G36U, the self-cleavage came to 0.24. In the case of G1U A14U G27A U28A A39U A41U U43A, the self-cleavage is 0. For the variant G1C G19C U20A G22A G29A A39C, the self-cleavage stood at 0.04. With G1C C13A A14G A41C, the self-cleavage amounted to 0. For G1U A4C U34G, the self-cleavage worked out at 0.03. With G1U C8U A26G C46A the figure was 0.08; with G1C A14G A24G, 0.17; with G1C C8A G27U, 0.02. Consider G1U A26G G36C G44C, for which the self-cleavage came to 0.03. Consider G1C A14G G17U C23A G29U C42U, for which the self-cleavage was found to be 0. For G1U C10A G27A G29U C42G, the self-cleavage came out at 0.01.

For the variant G1C G19A G29U C45G, the self-cleavage came to 0.2. Take G1C C8G A11C A24G G40C: the self-cleavage amounted to 0. As for G1C G5C G7A G33U, the self-cleavage came to 0.

Consider G1C A11C G29C, for which the self-cleavage is 0.01.

In the case of G1U C3U G22C G27C G36C, the self-cleavage turned out to be 0.1. Take G1C G17A C18G G22A A41G: the self-cleavage turned out to be 0.01. Consider G1C C8G G22C, for which the self-cleavage was determined as 0.02. As for G1C C3G A4C A11U G35U A41G, the self-cleavage worked out at 0.03. With G1C G22A C31G C42A C45U the figure was 0.01; with G1U C8U C37G C42G C46A, 0.07; with G1C G2U C10U C15A G27C G36U A41C C46U, 0. Consider G1U A4U G5A A12C, for which the self-cleavage stood at 0.12.

For G1C G29U G30A, the self-cleavage turned out to be 0.05. With G1C G36C A41U C46A the figure was 0.02. As to G1U A6G C13G G29C G33A A41U C46G, the self-cleavage came out at 0.01. With G1U A12G A39G, the self-cleavage came out at 0.01. With G1U C3A C18A G36A C37U the figure was 0.06. The figure for G1C C3G C8A C10U G19A C37U is 0.02; for G1C G5U C15G C42A U43G it is 0.3; for G1U A4C G7C it is 0.25. The figure for G1C C10G G29C G30U is 0.03.

On to G1U A6G A14U G29U A41C U43G, for which the self-cleavage is 0.01. For the variant G1C U20C C31U G33C, the self-cleavage amounted to 0.02. For the variant G1U A24U G44A, the self-cleavage came to 0.17. Take G1C U9A A39C C46U: the self-cleavage came to 0.01. With G1U A24U A26U C45U, the self-cleavage was found to be 0.99. Take G1U A6C G30A G33U: the self-cleavage was determined as 0.01. The figure for G1C C23U A39U is 0.03; for G1C C15A C37A A39G G40A it is 0.01. G1C C8G U9A C18U G19U C31G A41G C45A: the self-cleavage is 0.02. As for G1C G21A C42G C45A, the self-cleavage is 0. Consider G1C G19U G33A, for which the self-cleavage came out at 0.

Regarding G1C U20C C31U A39U C46U, the self-cleavage turned out to be 0.02. Regarding G1C C18A C31G G44C, the self-cleavage worked out at 0.09. For the variant G1C G7A G22A C23G C46A, the self-cleavage is 0.03. With G1C G2A G19U the figure was 0.09; with G1U A16G G17C A41G, 0.03; with G1U A11C A12U C13G G17C A24G U32A, 0.

As for G1C A41G G44C, the self-cleavage was 0.02. Take G1C C3U A14G G22A: the self-cleavage was found to be 0.2.

On to G1C G2A C13U U38C G44U, for which the self-cleavage was determined as 0.02. For the variant G1U A6C C8A U32G, the self-cleavage is 0.07. On to G1C G7C A14U, for which the self-cleavage worked out at 0.02. For G1C A14U A16C, the self-cleavage turned out to be 0. G1C G22A C37U C42A: the self-cleavage is 0.01.

Consider G1U C8A C15U U28A C31G U38A C46G, for which the self-cleavage was determined as 0.02. With G1U C8G C23U U38C the figure was 0.05. With G1C C8A C37G the figure was 0.04. Consider G1U A26G G30C, for which the self-cleavage came to 0.24.

Turning to G1U A6C G17C U28G, the self-cleavage turned out to be 0.06. The figure for G1U C10G C15G G36A U38G is 0.02; for G1C G19A U28C U32A G36C it is 0.01. With G1C G17A G29U, the self-cleavage amounted to 0.03. Turning to G1C G7U U20A C46A, the self-cleavage is 0.02. As to G1U A4C U9C G21A U34A G40U, the self-cleavage is 0.01. As for G1U C13A G17C U28A G40A, the self-cleavage came to 0.03.

As for G1U C3G C18G C31G, the self-cleavage stood at 0.01. As for G1U C8A C13A C45U, the self-cleavage came out at 0.28. As for G1C A25U G30U, the self-cleavage came to 0.08. For the variant G1C C13A G17U, the self-cleavage came out at 0.06. As for G1U A11U C31G U38C, the self-cleavage is 0. G1C U9G C15A A26G G33U U43C: the self-cleavage worked out at 0.01. As for G1C C15A G17A C31G G33A, the self-cleavage is 0.01. For G1C G19U U32G, the self-cleavage was 0.02. With G1U A11U U28A C42U U43G C45G the figure was 0; with G1U C3G G17U, 0.13. With G1C A14U C42A C46G, the self-cleavage is 0.03. On to G1U C3A C8A C10U C15A, for which the self-cleavage turned out to be 0.19. The figure for G1U A4G A26G is 0.14; for G1C G36C C37A it is 0.02. In the case of G1C C15U U28G, the self-cleavage was determined as 0.07. Consider G1C C10U A25C G27C G40A, for which the self-cleavage was 0. The figure for G1U A11C G40U is 0.07; for G1C G2U G7U U9A G22A C23A G40U it is 0.02. Take G1C A26C C31G U34A: the self-cleavage is 0.02. The figure for G1U A4C G30A U32C is 0.01; for G1U A6U A16U G30C A39G it is 0.09; for G1C A11U A12C it is 0.01. Consider G1C G7A A12U A14G U20A A39C, for which the self-cleavage came to 0.01. G1C G5C C46U: the self-cleavage amounted to 0.04. As to G1C G5A U20G, the self-cleavage stood at 0.01. In the case of G1U A12C G17U, the self-cleavage was determined as 0.02. In the case of G1U A16C G27U G36U, the self-cleavage came out at 0.08.

Regarding G1C A12U C13U, the self-cleavage is 0.04. G1C U9A C18U U20C: the self-cleavage came to 0. As for G1C G21U C37G, the self-cleavage came out at 0.03. Regarding G1C C3A C8A C13G C18G C45A, the self-cleavage was 0.09. The figure for G1C C8G C13G C15U U32C is 0.02; for G1U C10U A39U it is 0.01; for G1C G22U G29A it is 0.12. With G1C G30C C31A, the self-cleavage stood at 0.06. Take G1U C10U A16C: the self-cleavage was 0.06. As to G1C G2A G22A, the self-cleavage is 0.13. In the case of G1C G2A G22U, the self-cleavage was 0.36. G1C G5U C31A: the self-cleavage came out at 0.04. With G1U A14C G30A C31A the figure was 0.04; with G1C G2A A39U, 0.03; with G1C A12G C18G G19U C23A, 0.02. Consider G1U A6G U34C C37U A39U, for which the self-cleavage worked out at 0.02.

With G1C C3G C8G A24C U28A, the self-cleavage stood at 0.03. G1C A11C C23U: the self-cleavage was 0.02. As to G1U C8A U9A C13A, the self-cleavage was determined as 0.09.

In the case of G1C C10A C46A, the self-cleavage came out at 0.01.

Take G1C A12G U43A C46A: the self-cleavage stood at 0.04.

On to G1C G2U C10U A11U C37U, for which the self-cleavage stood at 0.01. The figure for G1U C13U A16C G35U is 0.01; for G1U A12G C42U it is 0.02; for G1U A11C C15G G19A it is 0.01. As for G1C U9C C10A G30A U34C C45U, the self-cleavage was determined as 0.01. With G1U A11C C23A the figure was 0.02; with G1C G21A U34C U38G A41G, 0.01; with G1C A14U U43A, 0. G1C G33U U38A C46U: the self-cleavage came to 0.01.

In the case of G1C G2U G19C U28G G29U G36U C46A, the self-cleavage is 0.05. With G1C C23A A26C U32C the figure was 0.04. As for G1C A16G A25U, the self-cleavage came to 0.02. The figure for G1C G17C A26C G35C is 0.02.
